According to a collection of fitness landscapes (doi:10.1016/j.celrep.2020.107928):
The full ranking holds about 81,000 sequences; the median of “one-hybrid fitness for binding NBS DNA” is about -0.1, and the highest 2% start at about 0.36. Some of the results follow.

B1: Caulobacter ParB omega fusion; a variant is named by its letters at X, in order, B8GW30 (parent)
chain: MESVVVGEPGMSEGRRGLGRGLSALLGEVDAAPAQAPGEQLGGSREAPIEILQRNPDQPRRTFREEDLEDLSNSIREKGVLQPILVRPSPDTAGEYQIVAGERAWRAAQRAGLKTVPIMVRELDDLAVLEIGIIENVQRADLNVLEEALSYKVLMEKFERTQENIAQTIGKSXSHVANXMRLLXLPDEVQSYLVSGELTAXHARAIAAAADPVALAKQIIEGGLSVRETEALARKAPNLSAGKSKGGRPPRVKDTDTQALESDLSSVLGLDVSIDHRGSTGTLTITYATLEQLDDLCNRLTRGI

Variants of: B1
Experiment: one-hybrid fitness for binding NBS DNA (the Noc-binding site; scaled: cognate 1, non-cognate 0); higher = stronger binding
Settings: with NBS DNA site
Procedure, shortened: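 Fitness is the rescaled log change in variant-to-wild-type read ratio, measured by Illumina sequencing of plasmids before and after bacterial one-hybrid selection. The scale puts cognate at 1 and non-cognate at 0. Selection of Caulobacter ParB libraries, four specificity codons randomised, took place in E. coli USO with a HIS3 reporter, site 19 bp from the promoter, over 48 hours at 37°C on M9-minus-histidine with 0.1 mM IPTG and 5 mM 3-AT.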

one-hybrid fitness for binding NBS DNA, 0.217:
QTAN

one-hybrid fitness for binding NBS DNA, 0.259:
RRKL

one-hybrid fitness for binding NBS DNA, 0.311:
RKHA

one-hybrid fitness for binding NBS DNA, 0.337:
QLRC

one-hybrid fitness for binding NBS DNA, 0.319:
KLKR

one-hybrid fitness for binding NBS DNA, 0.202:
QYIS

one-hybrid fitness for binding NBS DNA, 0.519:
QLHR

one-hybrid fitness for binding NBS DNA, ≤ 0.2:
IQNA
THIT
ATEP
FRQG
QAFH
SHDM
VMLC
QGNF
PDST
AKIR
YCDR
CRTF
SVHI
WYLC
DTLT
YPTN
SINF
DNPR
VEPC
WCQR
RGCL
YMIG
TPTH
PFHT
KKVH
RSAH
TPGF
NDTG
LPEG
WMHR
PYMD
HSHA
PDML
CAHN
ELSG
KNNM
QNAD
CYIS
MIRK
CSAK
HYTE
QAPK
DDHV
LTGD
MPMG
KYQG
STLT
TTIK
SQQG
SFSA
NMSR
MTAN
RIYY
HGST
QQQG
MPKY
PNLY
ANVT
PEYI
QWTI
MLLV
EQSN
NKIC
RGRF
DKAK
MEVR
QMCM
PERC
QPSW
HEES
LWVP
NTHH
QCAV
SPKK
DHGS
IDGS
DVLC
MNVG
PPNC
MNYA
SCPN
IETY
QFTN
GWSG
KRSC
YKHT
ASYT
PDVV
KLYM
TAFN
RNYP
VHSM
ADDA
QVTQ
NPRC
KHKY
NDWG
YMTV
YMCR
HGNV
PLNM
TESP
FYES
LVSY
TLYR
WVTA
CSSN
LKCS
QPLC
EFNT
MAAM
NSKV
MHRF
SPRV
PCVV
APNV
LPPG
HFML
FVGS
GDKS
EQMM
FKTC
ETPN
GDWT
MELG
STVH
KSGR
HHVE
CLIW
DAAS
HASS
LLQM
IDRK
RWAR
SNPW
TDCY
DGAT
TIQG
TPLF
GTRI
YLTF
SRSS
HMRF
LELG
CMMT
HMFS
FVPL
LCGR
RRDG
TSDF
IAVG
EEPE
IRTP
WARN
HRPS
FPER
NPLL
KHST
QHCM
LMEL
MNIR
RHQA
MAAR
PQSW
DSVL
SGSR
YAKL
MRAI
SVAD
KSCG
QMGG
PITT
HRGK
RSDS
YYDG
SFWL
VIFR
CKDY
LAKG
YIQR
WISA
VDMP
QPRS
QCLY

one-hybrid fitness for binding NBS DNA, 0.209:
VRLR

one-hybrid fitness for binding NBS DNA, 0.363:
QHWR

one-hybrid fitness for binding NBS DNA, 0.688:
QRQS

one-hybrid fitness for binding NBS DNA, 0.436:
QMYT
